{"source": "PubChem BioAssay AID485294", "about": "(National Center for Advancing Translational Sciences (NCATS), 2010)", "note": "About 150 (0.041%) of roughly 370,000 compounds were called active. The inconclusive results got no clear call from the source; some entries with a clear call stand among them for comparison. Calls come from the whole dose curve; as a rule, active = well fitted inhibition curve with a large enough effect; inconclusive = small, poorly fitted or top-dose-only effect; inactive = flat fitted curve, though single readings scatter. Potencies of inconclusive entries are left out as doubtful fits. Potency is the fitted concentration of half-maximal effect; tags give direction and shape of the fitted curve."}
{"target": "Beta-lactamase (Escherichia coli (strain K12)) (UniProt P00811)", "sequence (P00811 whole entry, looked up)": "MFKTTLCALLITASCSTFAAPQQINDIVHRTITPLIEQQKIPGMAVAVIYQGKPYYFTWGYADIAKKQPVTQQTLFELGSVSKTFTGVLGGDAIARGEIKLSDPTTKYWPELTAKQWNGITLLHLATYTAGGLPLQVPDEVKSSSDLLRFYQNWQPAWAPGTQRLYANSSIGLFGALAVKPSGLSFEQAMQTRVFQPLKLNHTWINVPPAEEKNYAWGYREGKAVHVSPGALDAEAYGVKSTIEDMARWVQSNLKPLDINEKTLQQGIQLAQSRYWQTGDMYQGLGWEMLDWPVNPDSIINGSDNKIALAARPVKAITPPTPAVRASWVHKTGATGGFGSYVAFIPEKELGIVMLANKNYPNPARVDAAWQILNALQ", "assay": "qHTS Inhibitors of AmpC Beta-Lactamase (assay with detergent); note: nearly all actives have a fitted effect of over 25% in size;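 for activity change, negative = inhibition: 0% = no-compound wells and -100% = no-enzyme wells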", "settings": "AmpC hydrolysis of nitrocefin, absorbance 480 nm, 0.01% Triton; activity change, negative = inhibition: at 114 µM (top of the series)", "procedure,_shortened": "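AmpC (5.3 nM in the dispensed reagent) in 20 mM phosphate pH 7.0 with 0.01% (detergent screen) or 0.0001% Triton X-100 was preincubated with compounds for 15 min at room temperature. Nitrocefin was then added from an 800 uM solution, and hydrolysis was followed at 480 nm.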"}
{"smiles": "O=C(O)CCCCCNC(=O)c1cccc(Br)c1", "Potency": "inconclusive [inhibitor, partial curve, poor fit]"}
{"smiles": "Cn1c(-c2cccc(Br)c2)n[nH]c1=O", "activity change, negative = inhibition": "inactive: 2.1%"}
{"smiles": "Cc1nc(NS(=O)(=O)c2cccs2)c2c3c(sc2n1)CCC3", "Potency": "inconclusive [inhibitor, partial curve, poor fit]"}
{"smiles": "COC(=O)c1cccc(S(=O)(=O)N2CCC(c3nc4ccccc4o3)CC2)c1", "Potency": "inconclusive [inhibitor, partial curve, poor fit]"}
{"smiles": "CCCCNC(=S)N1CCn2cccc2C1c1ccccc1", "note": "(stereo not drawn)", "activity change, negative = inhibition": "inactive: -6.75%"}
{"smiles": "CCSc1cc(C2C(C#N)=C(N)OC(C)=C2C(=O)OC)c(C)o1", "note": "(stereo not drawn)", "activity change, negative = inhibition": "inactive: 1.01%"}
{"smiles": "CCCc1cc(C(=O)N2CCCC(Nc3ccc(C)c(C)c3)C2)n(C)n1", "note": "(stereo not drawn)", "Potency": "inconclusive [inhibitor, full curve, poor fit]"}
{"smiles": "Cc1nn(Cc2ccc([N+](=O)[O-])cc2)c(=O)n1-c1ccc(Cl)cc1", "Potency": "inconclusive [inhibitor, full curve, poor fit]"}
{"smiles": "CC(=O)c1sc(NC(=O)c2oc3ccc(F)cc3c2C)nc1C", "Potency": "inconclusive [inhibitor, single point]"}
{"smiles": "O=C1CC(Cc2ccccc2)C(=O)N1c1ncccn1", "note": "(stereo not drawn)", "activity change, negative = inhibition": "inactive: 4.84%"}
{"smiles": "COc1ccccc1NC(=O)N(CCCN1CCOCC1)Cc1cc2cc3c(cc2[nH]c1=O)OCO3", "Potency": "inconclusive [inhibitor, single point]"}
{"smiles": "O=C1COc2ccc(C(=O)NCc3ccco3)cc2N1", "Potency": "inconclusive [inhibitor, full curve]"}
{"smiles": "CSCCC(NC(=O)CCNC(=O)c1ccccc1Cl)c1nc2ccccc2[nH]1", "note": "(stereo not drawn)", "Potency": "inconclusive [inhibitor, full curve, poor fit]"}
{"smiles": "CC(C)c1nnc(NC(=O)CCS(=O)(=O)Cc2ccccc2)s1", "Potency": "inconclusive [inhibitor, full curve]"}
{"smiles": "COc1ccccc1C(C)NCC(=O)NC(=O)NCc1ccco1", "note": "(stereo not drawn)", "Potency": "inconclusive [inhibitor, full curve]"}
{"smiles": "CC(C)c1ccc(C2CC(=O)N3CN(Cc4ccco4)CSC3=C2C#N)cc1", "note": "(stereo not drawn)", "Potency": "inconclusive [inhibitor, full curve, poor fit]"}
{"smiles": "CCC(C)Sc1ccc(-c2nc3ccc(C)cn3c2NC2CCCCC2)cc1", "note": "(stereo not drawn)", "Potency": "inconclusive [inhibitor, full curve, poor fit]"}
{"smiles": "COc1ccc2c(c1)[nH]c(=O)c1sc3ccccc3c12", "Potency": "inconclusive [inhibitor, partial curve]"}
{"smiles": "Cc1cc(C)cc(OCc2ccc(C(=O)N3N=C(C(F)F)CC3(O)C(F)F)o2)c1", "note": "(stereo not drawn)", "Potency": "inconclusive [inhibitor, full curve, poor fit]"}
{"smiles": "COC(=O)c1sccc1NC(=O)c1ccc(Br)o1", "Potency": "inconclusive [inhibitor, full curve]"}
{"smiles": "NC(=O)c1ccccc1N/C=C/C(=O)c1ccc(Cl)cc1Cl", "activity change, negative = inhibition": "inactive: -6.54%"}
{"smiles": "c1ccc(Nc2ccnc(Nc3ccccc3)n2)cc1", "activity change, negative = inhibition": "inactive: 1.76%"}
{"smiles": "CC(=O)c1cccc(CN2CCCC(C(=O)Nc3ccc(-c4ccco4)cc3)C2)c1", "note": "(stereo not drawn)", "activity change, negative = inhibition": "inactive: -3.08%"}
{"smiles": "C=CCn1c(=N)c(C(=O)OCC)cc2c(=O)n3cc(C)ccc3nc21", "Potency": "inconclusive [inhibitor, full curve]"}
{"smiles": "O=C(NCc1ccccc1)Oc1cccc(Cl)c1", "Potency": "inconclusive [inhibitor, full curve, poor fit]"}
{"smiles": "CCOc1ccc(NC(=O)CN(C)C(=O)c2cc(S(=O)(=O)N3CCCCC3)ccc2C)cc1OCC", "Potency": "inconclusive [inhibitor, partial curve, poor fit]"}
{"smiles": "CCOC(=O)c1cc(-c2ccc(OC)cc2)n(CCC(=O)NCc2ccc(OC)cc2)c1C", "activity change, negative = inhibition": "inactive: -1.31%"}
{"smiles": "Cc1ccc(CN2CCN(Cc3ccc(-n4cccn4)cc3C)CC2CCO)cc1", "note": "(stereo not drawn)", "activity change, negative = inhibition": "inactive: -1.48%"}
{"smiles": "CC(C)(C)c1ccc(/C=C2\\Oc3cc(OC(=O)N4CCOCC4)ccc3C2=O)cc1", "Potency": "inconclusive [inhibitor, single point]"}
{"smiles": "Cc1ccc2nsnc2c1S(=O)(=O)NCCc1c(C)[nH]c2ccc(F)cc12", "Potency": "inconclusive [inhibitor, single point]"}
{"smiles": "Cc1ccc(S(=O)(=O)NCCNC(=O)c2ccccc2)cc1", "Potency": "inconclusive [inhibitor, full curve]"}
{"smiles": "COc1ccc(Nc2c3ccccc3nc3ccccc23)cc1", "activity change, negative = inhibition": "inactive: 2.51%"}
{"smiles": "CCOC(=O)c1cccc(NC(=O)/C=C/c2ccc3c(c2)OCO3)c1", "Potency": "inconclusive [inhibitor, partial curve, poor fit]"}
{"smiles": "Cc1cc(C)c2c(n1)nn1c(NCCN3CCOCC3)cc(C)nc21", "Potency": "inconclusive [inhibitor, full curve]"}
{"smiles": "CCN(CC)S(=O)(=O)c1ccc(N2CCOCC2)c(NC(=O)c2cc([N+](=O)[O-])ccc2Cl)c1", "Potency": "inconclusive [inhibitor, full curve, poor fit]"}
{"smiles": "CCCOC(=O)C(C)n1cnc2sc(C)c(C)c2c1=O", "note": "(stereo not drawn)", "Potency": "inconclusive [inhibitor, full curve, poor fit]"}
{"smiles": "CCc1ccc(CNC(=O)c2cc(=O)[nH]c3ccc(S(=O)(=O)N4CCCCC4)cc23)cc1", "activity change, negative = inhibition": "inactive: 3.87%"}
{"smiles": "COc1cc(CN2CCCN(C)CC2)cc([N+](=O)[O-])c1O", "activity change, negative = inhibition": "inactive: -14.2%"}
{"smiles": "COc1ccc(/C=C\\c2onc(C)c2S(=O)(=O)N2CCC(C(=O)Nc3ccc(F)cc3F)CC2)cc1", "activity change, negative = inhibition": "inactive: -2.23%"}
{"smiles": "CN(C)c1ccc(CN(Cc2ccco2)C(=O)c2ccc(C(C)(C)C)cc2)cc1", "activity change, negative = inhibition": "inactive: 17.1%"}
{"smiles": "COC(=O)c1ccc(CSc2ncnc3c2nnn3-c2ccc(OC)cc2)o1", "activity change, negative = inhibition": "inactive: -14.3%"}
{"smiles": "COc1ccccc1NC(=O)CSc1nnc(N)s1", "activity change, negative = inhibition": "inactive: 4.83%"}
{"smiles": "CN(C(=O)COC(=O)c1ccc[nH]c1=O)C1CCCCC1", "Potency": "inconclusive [inhibitor, partial curve, poor fit]"}
{"smiles": "COc1ccc(S(=O)(=O)NCC(c2cccnc2)N2CCN(c3ccccc3)CC2)cc1C", "note": "(stereo not drawn)", "activity change, negative = inhibition": "inactive: -3.76%"}
{"smiles": "COc1ccc(OC)c(NS(=O)(=O)c2cc3c(cc2Cl)N(C(C)=O)CCO3)c1", "activity change, negative = inhibition": "inactive: -0.558%"}
{"smiles": "COC(=O)C1=C(O)/C(=C\\c2ccc(O)c(OC)c2)N=C1C", "Potency": "inconclusive [inhibitor, full curve, poor fit]"}
{"smiles": "N#Cc1ccc(C(=O)Nc2ccc([N+](=O)[O-])cc2)c(F)c1", "activity change, negative = inhibition": "inactive: 4.8%"}
{"smiles": "CCN1C(=O)[C@H]2[C@@H](c3ccc(C)cc3)N3C(=O)N(c4cccc(Br)c4)C(=O)[C@@]3(CC)[C@H]2C1=O", "Potency": "inconclusive [inhibitor, partial curve]"}
{"smiles": "Cc1ccc(Sc2c(C)nn(-c3ccccc3)c2OC(=O)C(C)(C)C)cc1", "Potency": "inconclusive [inhibitor, full curve, poor fit]"}
{"smiles": "CCOC(=O)N1CCN(C(=O)C(=O)c2cn(CC(=O)N3CCCCCC3)c3ccccc23)CC1", "activity change, negative = inhibition": "inactive: 1.28%"}
{"smiles": "CS(=O)(=O)N1CCN(C(=O)Cc2ccccc2)CC1", "Potency": "inconclusive [inhibitor, partial curve, poor fit]"}
{"smiles": "Cn1c(=O)oc2cc(S(=O)(=O)NC(Cc3ccccc3)C(=O)Nc3ccc(F)cc3)ccc21", "note": "(stereo not drawn)", "Potency": "inconclusive [inhibitor, single point]"}
{"smiles": "CCn1c(C(=O)NCc2ccc(F)cc2)cc2oc3ccccc3c21", "activity change, negative = inhibition": "inactive: 18.9%"}
{"smiles": "CCOC(=O)N1CCC(NC(=O)c2cc(C(=O)Nc3ccc(OCC)cc3)ccc2CO)CC1", "Potency": "inconclusive [inhibitor, full curve, poor fit]"}
{"smiles": "COc1cccc(-n2nnnc2SCC(=O)Nc2ccccc2OC)c1", "Potency": "inconclusive [inhibitor, full curve, poor fit]"}
{"smiles": "CC1(C)Cc2c(sc3c2c(N)nc(=S)n3Cc2ccc(Br)cc2)CO1", "activity change, negative = inhibition": "inactive: 2.9%"}
{"smiles": "Cc1cc(OCC(=O)Nc2ccccc2N2CCCC2)ccc1C(C)C", "Potency": "inconclusive [inhibitor, full curve, poor fit]"}
{"smiles": "Cc1ccccc1NC(=O)c1ccccc1NC(=O)CCC(=O)O", "Potency": "inconclusive [inhibitor, partial curve]"}
{"smiles": "C=CCC(C#Cc1ccccc1)[N+](C)(C)CC=C", "note": "(stereo not drawn)", "Potency": "inconclusive [inhibitor, full curve, poor fit]"}
{"smiles": "CN(C)S(=O)(=O)c1ccc(Cl)c(NC(=O)COC(=O)CN2C(=O)C3CCCCC3C2=O)c1", "note": "(stereo not drawn)", "Potency": "inconclusive [inhibitor, full curve, poor fit]"}
{"smiles": "COc1ccc(CCNS(=O)(=O)c2ccc3c(c2)n(C)c(=O)c(=O)n3C)cc1OC", "Potency": "inconclusive [inhibitor, full curve, poor fit]"}
{"smiles": "O=C(NCc1ccccc1)c1c(F)c(F)c(F)c(F)c1F", "Potency": "inconclusive [inhibitor, partial curve, poor fit]"}
{"smiles": "COc1ccccc1C(=O)NCCC(=O)NCC(c1ccccc1OC)N1CCCC1", "note": "(stereo not drawn)", "Potency": "inconclusive [inhibitor, full curve, poor fit]"}
{"smiles": "O=C(NC1CCN(S(=O)(=O)c2cccc(F)c2)CC1)c1ccc(F)cc1", "activity change, negative = inhibition": "inactive: -12.9%"}
{"smiles": "COc1ccc(CC(=O)NCC2CCCN(Cc3cccc(C(F)(F)F)c3)C2)cc1", "note": "(stereo not drawn)", "Potency": "inconclusive [inhibitor, partial curve]"}
{"smiles": "CCCNC(=O)NS(=O)(=O)c1cnccc1Sc1ccc(Cl)c(Cl)c1", "Potency": "inconclusive [inhibitor, full curve, poor fit]"}
{"smiles": "CN(CC(=O)NNC(=O)Cc1ccccc1F)S(=O)(=O)c1ccc(Cl)cc1", "activity change, negative = inhibition": "inactive: -10%"}
{"smiles": "NS(=O)(=O)c1ccc(NC(=O)CCC2CCCCC2)cc1", "Potency": "inconclusive [inhibitor, partial curve, poor fit]"}
